Hit rate of the full screen: of about 350,000 compounds, about 9,900 (2.8%) were called active. The shares of active, inactive and inconclusive entries below differ from those in the screen. Calls come from the whole dose curve; as a rule, active = well fitted activation curve with a large enough effect; inconclusive = small, poorly fitted or top-dose-only effect; inactive = no such curve, though single readings can be large or run the other way. Potencies of inconclusive entries are left out as doubtful fits.
Experiment: A quantitative high throughput screen for small molecules that induce DNA re-replication in MCF 10a normal breast cells. For activity, positive = re-replication: % of control where 0% means no effect. Note: nearly all actives have a fitted effect of over 50% in size.
Details: MCF 10A DNA re-replication, Hoechst nuclear intensity, 48 h; activity, positive = re-replication: at 46.1 µM (top of the series)
Potency is the fitted concentration of half-maximal effect; tags give direction and shape of the fitted curve.

Structure (SMILES)	Potency	activity, positive = re-replication
CCc1cc2c(=O)c(-c3nc4ccccc4[nH]3)coc2c(CN2CCCCC2C)c1O (stereo not drawn)	inconclusive [activator, single point]	
Cc1nc(S(=O)(=O)N(C)c2ccccc2)c(C#N)c(C)c1Cl	inconclusive [activator, single point]	
COc1ccc(CNc2oc(-c3cccc4ccccc34)nc2C#N)cc1	inconclusive [activator, single point]	
O=C(CSc1nnnn1-c1ccccc1)CSc1nnnn1-c1ccccc1		inactive: 16.9%
CN(C)C(=O)CSc1nc(-c2ccccc2)nc2c1CCCC2		inactive: 0.0106%
Cc1nc2sccn2c1-c1csc(NCc2ccccc2)n1		inactive: 1.02%
C/C(=N\OCC(=O)N/N=C/c1ccccc1)c1cccs1	inconclusive [activator, single point]	
Cc1cc(C)c(S(=O)(=O)N2CCN(C(=O)c3ccc(-n4cncn4)c([N+](=O)[O-])c3)CC2)c(C)c1		inactive: 6.46%
CCC(=O)Nc1ccc(N/C(N)=N/c2nc(C)cc(C)n2)cc1	inconclusive [activator, partial curve]	
CC(C)(C)C1CCc2c(sc(NC(=O)CSc3ncn[nH]3)c2C#N)C1 (stereo not drawn)	inconclusive [activator, single point]	
O=C(NC1CC2CCCC(C1)N2Cc1ccco1)NC12CC3CC(CC(C3)C1)C2 (stereo not drawn)	inconclusive [activator, partial curve, poor fit]	
CC(Sc1nc2ccccc2c(=O)n1C)C(=O)N(C)C1CCCCC1 (stereo not drawn)	inconclusive [activator, partial curve, poor fit]	
CC(=O)c1c(C)[nH]c(C(=O)CSc2nnc(-c3cccs3)n2Cc2ccccc2)c1C	active: 20.6 µM	
CCc1ccc2[nH]c(=O)c(CN(Cc3ccc(F)cc3)C(c3nnnn3CCN3CCOCC3)C(C)C)cc2c1 (stereo not drawn)		inactive: 5.98%
O=C(Cn1nc(-c2ccc(Cl)cc2)ccc1=O)NCCCN1CCN(Cc2ccccc2)CC1		inactive: -3.81%
Cc1cc(C)cc(-n2c(C)cc(/C=C3\C(=N)N4N=C(CC(C)C)SC4=NC3=O)c2C)c1	active: 18.4 µM	
COc1ccc(CCNC(=O)c2ccc(Cl)cc2Cl)cc1OC	inconclusive [activator, partial curve, poor fit]	
COc1ccc(Cl)cc1NC(=O)CN(C)CC(=O)N1CC(=O)Nc2ccccc21	inconclusive [activator, single point]	
CCNC(=S)NC1CC2CCCC(C1)N2Cc1ccc(C)cc1 (stereo not drawn)		inactive: 2.82%
CCOC(=O)C1CCCN(C(=O)COC(=O)c2cc(=O)c3ccccc3o2)C1 (stereo not drawn)	inconclusive [activator, partial curve, poor fit]	
CCCC(=O)N(CCN1CCOCC1)c1nc2c(F)cc(F)cc2s1		inactive: 9.82%
Cc1ccc(S(=O)(=O)C2(C(=O)Nc3ccc(C(C)C)cc3)CC2)cc1		inactive: -2.18%

Structure (SMILES)	Potency	activity, positive = re-replication
N=c1n(Cc2ccccc2)c2ccccc2n1CC(O)c1ccco1 (stereo not drawn)	inconclusive [activator, partial curve, poor fit]	
Cc1ccc(O)c(-c2cc(-c3ccccc3C)[nH]n2)c1	inconclusive [activator, single point]	
CCC(=O)Nc1nc2ccc3nc(C)sc3c2s1	inconclusive [activator, partial curve, poor fit]	
Cc1ccc2cc(/C=N/Nc3ccc(C(=O)O)cc3)c(Cl)nc2c1	active: 6.51 µM	
O=C(O)c1csc(-c2cccs2)n1	inconclusive [activator, partial curve, poor fit]	
COc1ccccc1C1NC(=O)c2ccccc2O1 (stereo not drawn)	inconclusive [activator, single point]	
C=CCn1c(SCC(=O)NC2CCCC2)nc2scc(-c3ccco3)c2c1=O	inconclusive [activator, single point]	
CN1CCN(C=Nc2nc3ccccc3nc2N2CCCC2)CC1	inconclusive [activator, single point]	
Cc1onc(-c2ccccc2)c1C(=O)NC(=S)NNC(=O)c1cc(-c2ccc(F)cc2)n[nH]1	inconclusive [activator, single point]	
CN1CCN(S(=O)(=O)c2ccc(N3CCN(S(=O)(=O)/C=C/c4ccccc4)CC3)nc2)CC1	active: 7.31 µM	
CC(=O)/C(N)=N/Nc1cccc(Cl)c1	inconclusive [activator, single point]	
O=C(COC(=O)CCN1C(=O)c2ccccc2C1=O)Nc1ccccc1[N+](=O)[O-]	inconclusive [activator, partial curve]	
COc1ccc2c(c1)CC=C1C2CCC2(C)C(=O)C(=NO)CC12 (stereo not drawn)	inconclusive [activator, single point]	
CCSc1nc(C)c(C)c(=O)[nH]1		inactive: 4.1%
N#CCC(CNc1ncc(C(F)(F)F)cc1Cl)OC(=O)c1ccc(Cl)cc1 (stereo not drawn)	inconclusive [activator, full curve, poor fit]	
COc1ccc(-c2c/c(=N\c3nc(-c4ccccc4)c(C)s3)c3ccccc3o2)cc1O	inconclusive [activator, full curve]	
CCN(CC1CCCN(CCc2cccc(OC)c2)C1)C(=O)C=C(C)C (stereo not drawn)		inactive: 3.7%
COc1ccc(-c2cc(C3CCN(c4ncccc4[N+](=O)[O-])CC3)[nH]n2)cc1	inconclusive [activator, partial curve, poor fit]	
CCC/C=N/NC(=O)c1cc(Br)ccc1O	inconclusive [activator, partial curve, poor fit]	
O=C(CSCc1ccc(Cl)cc1)N1CCN(Cc2ccc3c(c2)OCO3)CC1	inconclusive [activator, partial curve, poor fit]	
O=C(NCCc1ccccc1)C1CCC(CNc2nc(=S)[nH]c3ccccc23)CC1 (stereo not drawn)	inconclusive [activator, single point]	

From PubChem BioAssay AID624296 (National Center for Advancing Translational Sciences (NCATS), 2012)
